Data: PubChem BioAssay AID1030 (National Center for Advancing Translational Sciences (NCATS), 2008)
The campaign covered roughly 220,000 compounds. About 16,000 (7.3%) were called active. The inconclusive results got no clear call from the source; some entries with a clear call stand among them for comparison. Calls follow the shape of the dose curve; as a rule, active = well fitted inhibition curve with a large enough effect (not every such curve was filed as active); inconclusive = small, poorly fitted or top-dose-only effect, or another doubt; inactive = no such curve, though single readings can be large or run the other way. No potency is given beside an inconclusive call; the fits are too rough.

molecular target: Aldehyde dehydrogenase 1A1 (Homo sapiens) (UniProt P00352); experiment: qHTS Assay for Inhibitors of Aldehyde Dehydrogenase 1 (ALDH1A1); conditions: Purified ALDH1A1, NADH fluorescence, propionaldehyde substrate; series mostly up to 75.3 µM;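 as to activity, negative = inhibition: plate controls were no enzyme wells and a reference inhibitor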
Potency is read from the fitted curve at half-maximal effect; tags tell the direction and shape of the fitted curve.

Chain of UniProt P00352 (P00352 whole entry, looked up): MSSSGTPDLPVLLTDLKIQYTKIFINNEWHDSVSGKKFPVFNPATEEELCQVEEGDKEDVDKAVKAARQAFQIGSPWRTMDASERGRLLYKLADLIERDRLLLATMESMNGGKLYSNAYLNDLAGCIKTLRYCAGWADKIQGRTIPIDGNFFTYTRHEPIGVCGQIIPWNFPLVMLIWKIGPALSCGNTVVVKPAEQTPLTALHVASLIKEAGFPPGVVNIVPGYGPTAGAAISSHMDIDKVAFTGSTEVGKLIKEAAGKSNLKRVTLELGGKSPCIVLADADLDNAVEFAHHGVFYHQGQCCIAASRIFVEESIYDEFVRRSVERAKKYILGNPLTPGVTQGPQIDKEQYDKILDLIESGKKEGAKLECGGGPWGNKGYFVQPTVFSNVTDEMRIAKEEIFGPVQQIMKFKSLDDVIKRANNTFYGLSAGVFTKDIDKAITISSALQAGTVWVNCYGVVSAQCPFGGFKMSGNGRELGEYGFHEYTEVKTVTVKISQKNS

Structure (SMILES)	Potency	activity, negative = inhibition
O=C(NCC1CCCCC1)c1cccc(S(=O)(=O)NCc2cccnc2)c1	inconclusive [inhibitor, single point]	
COc1cc(-n2c(C)nc3cc(C(=O)NCc4ccco4)ccc32)cc(OC)c1OC	inconclusive [inhibitor, partial curve]	
CCOc1cc(NC(=S)Nc2ccccc2)c(OCC)cc1NC(=O)c1ccccc1	inconclusive [inhibitor, single point]	
CN(C)S(=O)(=O)c1ccc(Cl)c(C(=O)OCC(=O)NC(=O)c2cccn2C)c1	inactive	
CCCCn1c(N)c(S(=O)(=O)c2ccc(C)cc2)c2nc3ccccc3nc21	inconclusive [inhibitor, partial curve]	
COc1cc(-c2ccccc2)nc(N)n1	inconclusive [inhibitor, single point]	
NC(Cc1ccc(O)c(O)c1)C(=O)O (centres undefined)	inconclusive [inhibitor, partial curve]	
C=CCn1c(SCc2c(F)cccc2Cl)nnc1-c1ccco1	inconclusive [inhibitor, partial curve]	
COc1cc(CN2CCCC(C(=O)c3ccc4c5c(cccc35)CC4)C2)cc(OC)c1O (centres undefined)	inconclusive [inhibitor, partial curve]	
Cc1ccc(C(=O)OC2CCOC2=O)cc1NC(=O)c1ccco1 (centres undefined)	inactive	
COc1ccc(Cl)cc1C(=O)Nc1nc2ccc(S(C)(=O)=O)cc2s1	inactive	
CCOC(=O)N1CCN(c2c(N3CCN(c4ccc(OC)cc4)CC3)c(=O)c2=O)CC1	inconclusive [inhibitor, partial curve]	
C=CCn1c(SCc2csc(C)n2)nc2scc(-c3ccc(C)o3)c2c1=O	active: 22.4 µM	
COc1cc([N+](=O)[O-])ccc1NC(=O)CSc1nccn1C	inconclusive [inhibitor, partial curve]	
CCN1CCN(Cc2c(C)[nH]c3ccc(C(=O)OC)cc3c2=O)CC1	inconclusive [inhibitor, single point]	
O=C(NC(Cc1c[nH]c2ccccc12)C(=O)Nc1ccc(OC(F)(F)F)cc1)c1cccs1 (centres undefined)	inactive	
O=C(Cn1nnc(-c2ccccc2)n1)N/N=C/c1ccc(-c2ccc(Cl)cc2)o1	inconclusive [inhibitor, partial curve]	
CC1CN(c2cc(-c3ccccc3)c3ccccc3n2)CC(C)O1 (centres undefined)	inconclusive [inhibitor, single point]	
COc1ccc(CNCCNC(=O)c2cccs2)c(OC)c1OC	inconclusive [inhibitor, single point]	
Cc1ccc(-c2nc3cnccn3c2Nc2ccc3c(c2)OCO3)cc1	inconclusive [inhibitor, single point]	
N/C(CN1CCCCC1)=N\S(=O)(=O)c1cc(Cl)cc(Cl)c1	inactive	
COc1cc(/C=C2/C(=O)CNC2=O)ccc1O	active: 12.6 µM	
Brc1ccc(OCCOCCN2CCOCC2)cc1	inactive	
COc1ccc(NC(=S)NCc2ccc(S(N)(=O)=O)cc2)c(OC)c1	inconclusive [inhibitor, single point]	
CCOC(=O)N1CCN(Cc2nc3c(c(=O)n(C)c(=O)n3C)n2CCCc2ccccc2)CC1	active: 0.631 µM	

Structure (SMILES)	Potency	activity, negative = inhibition
CC1CCc2nn(CC(=O)N3CCc4ccccc43)cc2C1 (centres undefined)	inactive	
COCCn1c(SCC(=O)NC(=O)NC(C)C)nc2ccccc21	inactive	
COC(=O)CNC(=O)COC(=O)/C=C/c1ccccc1[N+](=O)[O-]	inconclusive [inhibitor, single point]	
CC1(C)OC(=O)N2CCc3ccccc3C21C (centres undefined)	inconclusive [inhibitor, partial curve]	
Cc1ccc(S(=O)(=O)Oc2cc(S(=O)(=O)O)cc3cc(S(=O)(=O)O)cc(N)c23)cc1		inactive: -0.343% [at 13.5 µM]
O=C(CSc1nnc(-c2ccncc2)n1Cc1ccco1)c1ccc(Cl)cc1	inconclusive [inhibitor, single point]	
Cc1ccc(-c2cc(=O)c3ccccc3[nH]2)cc1	inactive	
COC(=O)CN(C#N)c1nc(SC)nc(N(C)C)n1	inconclusive [inhibitor, single point]	
CCOc1ccccc1N1CCN(c2nc(N)c(C#N)c(CC#N)c2C#N)CC1	active: 20 µM	
NC(=O)c1c(NC(=O)CSc2nnc(-c3ccco3)n2-c2ccccc2)sc2c1CCC2	inconclusive [inhibitor, full curve]	
Cc1sc2nc(SCC(=O)N(C)C)[nH]c(=O)c2c1C	inactive	
CSC1=NCCN1C(=O)c1ccc2c(c1)OCO2	active: 11.2 µM	
Cc1cccc(CCNC(=O)c2cc(=O)[nH]c3ccc(Br)cc23)c1	inactive	
Cc1cc(C)cc(Nc2nc(-c3ccc(S(=O)(=O)N4CCCC4)cc3)cs2)c1	inconclusive [inhibitor, partial curve]	
Cc1ccc(C)c(C(=O)COc2ncnc3ccccc23)c1	inactive	
COc1ccc(C2C(C#N)=C(N)OC(C(C)(C)C)=C2C#N)cc1OC (centres undefined)	inconclusive [inhibitor, full curve]	
CCOC(=O)CN1NC2(CCCC(C)C2)NC1=S (centres undefined)	inconclusive [inhibitor, single point]	
COc1ccc(-c2nnc(N(C)C(=O)c3ccno3)s2)cc1	inconclusive [inhibitor, single point]	
O=C(c1ccncc1)N1CCC2(CC1)CN(c1ccccc1)C2	inconclusive [inhibitor, single point]	
CC(C)(C)C(=O)O/N=C1\CCS(=O)(=O)c2sccc21	inconclusive [inhibitor, single point]	
CC1CCCC(C)N1C(=O)CSc1nnnn1-c1cccc2c1CCCC2 (centres undefined)	active: 28.2 µM	
COc1ccc(-c2cnc3nc[nH]c(=O)c3n2)cc1	inconclusive [inhibitor, partial curve]	
O=C(CSc1ncccc1-c1nc2ccccc2[nH]1)N1CCN(c2ccccc2F)CC1	inconclusive [inhibitor, partial curve]	
COc1ccc(N(C(=O)c2ccccc2)S(=O)(=O)c2cccs2)cc1	inconclusive [inhibitor, single point]	
COc1ccc(-n2c(=O)c(CCc3ccccc3)nc3cnc(N(C)C)nc32)cc1	inconclusive [inhibitor, partial curve]	

Structure (SMILES)	Potency	activity, negative = inhibition
O=C(C[n+]1cccc(NC(=O)c2ccccc2)c1)c1cccc([N+](=O)[O-])c1	active: 9.46 µM	
COc1cc(/C=N/NS(=O)(=O)c2ccc(C(C)(C)C)cc2)cc([N+](=O)[O-])c1O	active: 7.94 µM	
c1ccc2oc(-c3ccc(Nc4nc(N5CCCCC5)nc(N5CCOCC5)n4)cc3)nc2c1	inconclusive [inhibitor, partial curve]	
CCC(C)c1c(O)nc(SCC(=O)N2CCOCC2)[nH]c1=O (centres undefined)	inactive	
Fc1ccc(N/N=C2/CC(c3ccccc3)Oc3ccccc32)c(F)c1 (centres undefined)	inconclusive [inhibitor, single point]	
CCCn1nnnc1NC(=O)c1cc(Cl)ccc1Cl	inconclusive [inhibitor, single point]	
CCOc1ccccc1NC1c2ccccc2C(=O)N1Cc1ccco1 (centres undefined)	inactive	
Cc1ccc(NCc2nnc(SCC(=O)N3c4ccccc4Sc4ccccc43)o2)c(C)c1	inactive	
C=CCn1cccc(C(=O)Nc2ccc(OC)cc2)c1=O	inconclusive [inhibitor, single point]	
O=C(Nc1ccccc1)Nc1ccc(F)c([N+](=O)[O-])c1	inactive	
CC1CN(C(=O)c2ccccc2)OC(c2ccc3c(c2)OCO3)O1 (centres undefined)	inconclusive [inhibitor, partial curve]	
O=C(CNS(=O)(=O)/C=C/c1ccccc1)OCC(=O)N1CCC(Cc2ccccc2)CC1	inconclusive [inhibitor, partial curve]	
COC(=O)c1cccc(N(C(=O)c2cnccn2)C(C(=O)NCc2ccccc2)c2ccco2)c1 (centres undefined)	inactive	
CCOc1ccc(S(=O)(=O)NCCN2CCOCC2)c2ccccc12	inactive	
COc1ccc(Nc2nc(N/N=C/c3ccc(N(C)C)cc3)nc(C)c2[N+](=O)[O-])cc1	active: 7.94 µM	
Cn1c(=O)cc(SCC(=O)N2CCCC2)c2ccc(Cl)cc21	inconclusive [inhibitor, partial curve, poor fit]	
CSc1nc(-c2ccco2)cc(C(F)(F)F)c1C#N	inconclusive [inhibitor, partial curve]	
CC(=O)N/C(=C\c1ccc(F)cc1)C(=O)NC(Cc1c[nH]c2ccccc12)C(=O)O (centres undefined)	inactive	
COc1ccc(S(=O)(=O)Nc2ccccn2)cc1C	inconclusive [inhibitor, single point]	
CC(C)(C)c1ccc(CN2CCN([C@H](c3ccccc3)c3ccc(Cl)cc3)CC2)cc1		inactive: -2.67% [at 13.5 µM]
O=C1Nc2ccc(Cl)cc2C(C#CC2CC2)(C(F)(F)F)O1 (centres undefined)	inactive	
CCCNC(=S)N1CC2(C)CN(C(=O)C(=O)OCC)CC(C)(C1)C2=O	inactive	
CSc1nc(C)cc(Nc2ccc(O)c(CN3CCCCC3)c2)n1		inactive: -2.02% [at 13.5 µM]
O=c1oc2ccc3ccccc3c2cc1-c1nnc(-c2cccs2)o1	inconclusive [inhibitor, partial curve]	
